This data set relates to ATP. Put plainly: switch fluorescence ratio, 500 uM ATP over buffer (Cy3 cluster intensity, sum of 5 cycles each) (fold (ratio)); higher = stronger signal-on switching upon ATP binding; sequences stand for … in TCGTCGGCAGCGTCAGATGTGTATAAGAGACAGTTTTTTTTTTTTTTTTTTTTTTTTT…TC. The conditions noted are these: aptamer strand: ATP DNA aptamer (quencher-CACCTGGGGGAGTATTGCGGAGGAAGG + anchor), 100 nM annealed; ATP concentration: 500 uM; one replicate. The procedure, abridged: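 After annealing to 100 nM quencher-labelled ATP aptamer, Cy3-labelled switching-strand clusters on a modified Illumina MiSeq flow-cell were imaged in selection buffer. A second image followed after 15 min with 500 uM ATP at 22 °C, and five such buffer/ATP cycles were done, each separated by NaOH stripping and re-annealing. The fluorescence ratio, averaged per switch-domain sequence, is summed target-cycle over summed buffer-cycle Cy3 intensity per cluster, with clusters outside 100-1000 RFU excluded.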

Values marked as one replicate rest on one cluster of the flow cell; about a third of the high ones do not repeat.
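Further: ATP exposure 15 min at 22 °C before imaging.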

With CTGCCTGCGG, the switch fluorescence ratio worked out at 0.992. The value for AGAACACTTT was 1.03; that for GCAAGATCCG was 1.12.

As for AAGGTGGCC, the switch fluorescence ratio was 0.967. The value for AATAGGACCG was 1.06. Take GCGATGGTTT: the switch fluorescence ratio came to 0.979. The value for TGCATTTAAC was 1.08; that for GTTTAATAAT was 1.02.

For TTCGTGCTCC, the switch fluorescence ratio worked out at 1.04. Under TCAAGTTTCG stands 0.932. Under AAGTTAGTCT stands 1.07; under AATCGGTAGT, 1.02; under GCAGCGATAT, 6.4.

For AATGGGGCGT, the switch fluorescence ratio was found to be 0.982. Consider CCATTGAACG, for which the switch fluorescence ratio turned out to be 1.05. With CACAATTGCA, the switch fluorescence ratio turned out to be 1.04. For the sequence AAGATAAGGT, the switch fluorescence ratio was 1.01. The value for AAGATTTCCG was 0.969; that for CACGTCGTGG was 0.978; that for TGATGGTCGG was 0.949. For the sequence CTGTTTAAAC, the switch fluorescence ratio was 0.966. The value for TTGTTTGCTG was 0.995. Regarding GTTATAGATA, the switch fluorescence ratio worked out at 0.992.

As to GGCGCTTTCA, the switch fluorescence ratio was found to be 0.975. Under AGTAGCGTC stands 1.04; under GGTGAACCAG, 0.967. With GTTAAGAAGG, the switch fluorescence ratio is 0.921. As to GCTCACAATT, the switch fluorescence ratio was 1.07. With TAATCGTAAT, the switch fluorescence ratio was 0.977. The value for TTTCGAGTGG was 1.03. Under ATCTTCGAAA stands 1.17; under ATGCCTTGCT, 0.977. Regarding GCTGTAGTTA, the switch fluorescence ratio worked out at 1.02.

On to TCAGGGTTAG, for which the switch fluorescence ratio worked out at 0.994. Under AAGTGCACAT stands 1.03; under TATATGTATT, 1. As to ATATCTGATG, the switch fluorescence ratio came to 0.96. Under GTGGGAGATC stands 1.51; under CGGGAGGTGG, 0.975; under TCTCTGGCTT, 1.13. For the sequence GGGCGCCACG, the switch fluorescence ratio came to 0.987.

For the sequence TCTATATGAG, the switch fluorescence ratio came out at 0.994. Under CCCTTTTACT stands 1.04; under CAGTCTTAAG, 1.01. With CCGTGTCACT, the switch fluorescence ratio is 1.06. Under CGCGAAGGTC stands 1.02; under GAGTTATCAC, 1.07.

On to AACTCGCG, for which the switch fluorescence ratio worked out at 0.996. As to TCGTAAGGCA, the switch fluorescence ratio came to 0.969.

For CCTAACGATC, the switch fluorescence ratio stood at 1.14.

TGACATTGAT: the switch fluorescence ratio was found to be 0.985. The value for TACAATTAAT was 1.03; that for AAAAGGATAA was 1.01. For the sequence GCTCAATAGA, the switch fluorescence ratio worked out at 1.01. The value for AGGCGCTACA was 1; that for TGCGGCTCCC was 1.01. As to AGACGAATTG, the switch fluorescence ratio is 0.998. Under AGTTCCTTTT stands 1.02. As to GCCTGAATAT, the switch fluorescence ratio came out at 1.02. Under GACTCCAAGC stands 1.46; under GATAAGACTA, 0.994; under TCATCGCAGT, 2.09.

AGCCATTGTG: the switch fluorescence ratio is 0.986.

On to CGCCAGTATC, for which the switch fluorescence ratio amounted to 1.04. Turning to TACGGGTAC, the switch fluorescence ratio is 3.52. As to CGGTGTTTGT, the switch fluorescence ratio is 0.987.

On to TAAGAGCGTC, for which the switch fluorescence ratio is 0.996. As for AATTCCTTTA, the switch fluorescence ratio was 1.02.

Regarding AGGGAACGAG, the switch fluorescence ratio was 1.01. Regarding TCATTAGTTG, the switch fluorescence ratio was 0.983.

Take CGGCGTGTGG: the switch fluorescence ratio came to 0.947. As to TTGCGGATCT, the switch fluorescence ratio worked out at 1.04. Under GCTAGGAACG stands 0.99. The value for AGAGTTGGG was 0.977; that for GCTGGCAGCT was 0.984. The value for CGTAACAGCG was 0.957. Consider GCTTGGGGT, for which the switch fluorescence ratio turned out to be 0.99. The value for GGATGCGGAA was 0.991; that for GGGCCTGCGA was 1.04.

As to AAAATGTAAC, the switch fluorescence ratio amounted to 1.09.

For TTAGGACCTT, the switch fluorescence ratio was 0.974. Under AACCGGGTGT stands 2.16.

For the sequence GGGTCACTGT, the switch fluorescence ratio was 0.973. Under CGTCGCGTGG stands 0.983; under GATTTCGAA, 1.05; under TACAAGCCGC, 1.05. The value for GCGTCCATTT was 0.969; that for GGTACATCTA was 0.989; that for ACCATGTGT was 1.02. The value for ATTGTCAGTC was 0.96; that for TAGGCTATTT was 0.991; that for GATGGCAAGA was 1.14. For ACTAGGTAGT, the switch fluorescence ratio came to 1.04. With GATCTCGGCG, the switch fluorescence ratio stood at 0.954. Under GGGTATTTGA stands 1.01; under CGAGTCGATA, 0.97; under TATCTGGATT, 0.99. Under AGAATAACTA stands 0.984; under CTCTAAGGAA, 1.02; under CTTTGTTTTG, 0.998. Take GCTTTCATTC: the switch fluorescence ratio turned out to be 1.03. Turning to AAATAAGGTA, the switch fluorescence ratio is 0.999. On to GAGTATCGTG, for which the switch fluorescence ratio worked out at 0.935. The value for CACGGGGGCT was 1.02.

Turning to TGTAGGAGAG, the switch fluorescence ratio came out at 0.99. As for AAACGGTATC, the switch fluorescence ratio worked out at 1.04. With CTCTAATATT, the switch fluorescence ratio is 1.24. The value for TTGGGTCGG was 0.958; that for TGCTGTAGCT was 1; that for ATTGGGTGAC was 1.01. For GGCGCTTGTG, the switch fluorescence ratio amounted to 0.973. The value for GGCGCCGCTA was 0.985; that for GCATGACGTC was 1.01; that for AATTTTAAGA was 0.934. With TCTCTAGTGG, the switch fluorescence ratio came out at 0.981. In the case of ATTCACAGCT, the switch fluorescence ratio amounted to 1.04.

With ATCTCTTGGC, the switch fluorescence ratio came out at 0.974. Take TTCATAAGCC: the switch fluorescence ratio came out at 0.986.

With GCGGAGCTTC, the switch fluorescence ratio was found to be 1.24. The value for GGCTCGTCTA was 0.98.
